In all, about 81,000 sequences were measured (“one-hybrid fitness for binding parS DNA”: median about -0.17, highest 2% from about 0.51 on). The list shows a part of the results.
B1: Caulobacter ParB omega fusion; a variant is named by its letters at X, in order, B8GW30 (parent)
chain: MESVVVGEPGMSEGRRGLGRGLSALLGEVDAAPAQAPGEQLGGSREAPIEILQRNPDQPRRTFREEDLEDLSNSIREKGVLQPILVRPSPDTAGEYQIVAGERAWRAAQRAGLKTVPIMVRELDDLAVLEIGIIENVQRADLNVLEEALSYKVLMEKFERTQENIAQTIGKSXSHVANXMRLLXLPDEVQSYLVSGELTAXHARAIAAAADPVALAKQIIEGGLSVRETEALARKAPNLSAGKSKGGRPPRVKDTDTQALESDLSSVLGLDVSIDHRGSTGTLTITYATLEQLDDLCNRLTRGI

Variants of: B1
Test: one-hybrid fitness for binding parS DNA (scaled: cognate 1, non-cognate 0); higher = stronger binding
Conditions: with parS DNA site
Method in brief: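 Fitness is the rescaled log change in variant-to-wild-type read ratio, measured by Illumina sequencing of plasmids before and after bacterial one-hybrid selection. The scale puts cognate at 1 and non-cognate at 0. Selection of Caulobacter ParB libraries, four specificity codons randomised, took place in E. coli USO with a HIS3 reporter, site 19 bp from the promoter, over 48 hours at 37°C on M9-minus-histidine with 0.1 mM IPTG and 5 mM 3-AT.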

one-hybrid fitness for binding parS DNA, ≤ 0.2:
TKYV
NLSC
GTVQ
SPLF
PGAL
GAST
FIAR
NDLC
RRML
VTDW
RWQH
PCCV
MTRF
LWSL
GSMG
SDPC
LHPR
EQSY
LAVF
RRPP
ANAR
PANT
PNCT
YGVF
LPTA
SVWC
DYYS
TASD
CHRT
IREV
TYIL
HEPQ
ERPV
QHTM
MLVM
GDGE
VLFP
ATRG
WPYR
ARRL
LIQS
MCRL
ETDR
LDHL
HGKS
NMPG
WKCR
GHSK
LLQW
VMNC
VKTT
YMAD
PREP
QMLF
THTY
GKGR
QNQH
YFMS
KNAS
WRGG
DDTT
ACCR
KLNE
SDPM
APIT
RVII
HIWR
HCFF
HWPI
LAFG
TRAY
CGEV
EWRG
APIW
CFPL
LFSF
KMKM
VYNP
SPKC
MIVI
GKAR
HGTP
PRTL
VKIQ
TESR
HTCF
CCYD
LKVY
DVIV
RVPI
QMDG
SNEP
QTQQ
RIDI
FVTQ
QLCI
QHFR
NATF

Source: a collection of fitness landscapes (doi:10.1016/j.celrep.2020.107928)
